Measurements published in PubChem BioAssay AID624296 (National Center for Advancing Translational Sciences (NCATS), 2012).
About 9,900 (2.8%) of roughly 350,000 compounds were called active. The inconclusive results got no clear call from the source; some entries with a clear call stand among them for comparison. Calls follow the shape of the dose curve; as a rule, active = well fitted activation curve with a large enough effect; inconclusive = small, poorly fitted or top-dose-only effect; inactive = no such curve, though single readings can be large or run the other way. No potency is given beside an inconclusive call; the fits are too rough.
Potency is read from the fitted curve at half-maximal effect; tags tell the direction and shape of the fitted curve.

Experiment: A quantitative high throughput screen for small molecules that induce DNA re-replication in MCF 10a normal breast cells. Also: nearly all actives have a fitted effect of over 50% in size. As to activity, positive = re-replication: % of control where 0% means no effect.
Details: MCF 10A DNA re-replication, Hoechst nuclear intensity, 48 h; activity, positive = re-replication: at 46.1 µM (top of the series)
For `CCn1cc(/C=N/NC(=O)c2ccc3c(c2)OCO3)cn1`, the “activity, positive = re-replication” value was inactive: -0.855%. For `CC1(C)C2CC=C(/C=N/NC(=O)c3ccccc3O)C1C2` (centres undefined), the Potency was inconclusive [activator, partial curve, poor fit]. In the case of `Cc1cc(=O)oc2cc(O)cc(O)c12`, the “activity, positive = re-replication” value was inactive: 6.56%. For `COc1ccc(N2CCN(C(=O)CSc3nnc4c(C)cc5ccccc5n34)CC2)cc1`, the Potency was inconclusive [activator, single point]. For `COc1ccccc1N(CC(O)Cn1ccnc1C)S(=O)(=O)c1ccc(C)cc1` (centres undefined), the Potency was inconclusive [activator, single point]. For `COc1ccc(NC(=O)CN2C(=O)c3ccccc3S2(=O)=O)cc1S(=O)(=O)N1CCOCC1`, the “activity, positive = re-replication” value was inactive: -1.32%. With `CC[C@@H]1C(c2ccc(F)cc2)=NN(c2ccccc2)[C@H]1C(=O)N1CCOC1=O` the Potency was inconclusive [activator, single point]. In the case of `CCOC(=O)C(c1ccccc1)C(Nc1ccccc1)c1ccccn1` (centres undefined), the “activity, positive = re-replication” value was inactive: -3.4%. With `Cc1ccc(NC(=O)c2cccs2)cc1[N+](=O)[O-]` the “activity, positive = re-replication” value was inactive: 5.07%. In the case of `CC1(C#N)c2ccccc2C(Br)=CN1C(=O)c1ccccc1` (centres undefined), the Potency was inconclusive [activator, partial curve, poor fit]. For `CCOc1nc(NC(=O)NS(=O)(=O)Oc2ccccc2Cl)nc(-c2ccccc2)n1`, the Potency was inconclusive [activator, partial curve, poor fit]. With `Cc1ccc(C)c(NC(=S)c2ccc3ccccc3n2)c1` the “activity, positive = re-replication” value was inactive: 2.92%. In the case of `Cc1cccc(C)c1NC(=O)CN(C)C(C)C(=O)NCC(=O)Nc1ccc(F)c(F)c1F` (centres undefined), the “activity, positive = re-replication” value was inactive: 15%. With `Cc1cc(F)ccc1N1CCC(N2CCN(CCC(C)C)C(CCO)C2)CC1` (centres undefined) the Potency was inconclusive [activator, single point]. For `CC(C)c1ccc(OCC(=O)NNC(=S)NC(=O)C2CC2)cc1`, the Potency was inconclusive [activator, full curve]. For `COc1ccc(S(=O)(=O)N(C)C[C@@H]2Oc3c(NS(C)(=O)=O)cccc3C(=O)N([C@@H](C)CO)C[C@H]2C)cc1`, the Potency was inconclusive [activator, single point]. For `CCOc1ccc(-n2nnc3c(=O)n(CC(=O)N4CCCc5ccccc54)cnc32)cc1`, the Potency was inconclusive [activator, single point]. With `CCOC(=O)c1nn(-c2ccc3c(c2)CCN3C(C)=O)cc1O` the Potency was active: 14.6 µM. In the case of `O=C(O)c1ccccc1NC(=O)c1ccccc1Nc1ccccc1`, the Potency was inconclusive [activator, partial curve]. With `CC(C)N(Cc1nc(COc2ccccc2)no1)Cc1nccn1C` the “activity, positive = re-replication” value was inactive: 5.62%. With `CCc1cccc(NC(=O)c2ccc(NS(=O)(=O)c3c(C)noc3C)cc2)c1` the Potency was inconclusive [activator, single point]. With `CCCC(=O)NC(=S)N1CCN(c2ccc([N+](=O)[O-])cc2)CC1` the “activity, positive = re-replication” value was inactive: -0.827%. For `O=C(CCc1ccccc1)Nc1ccc2c(c1)OCO2`, the Potency was inconclusive [activator, partial curve, poor fit]. For `Cc1ccccc1N=C1NC(=O)/C(=C/c2cccnc2)S1`, the Potency was inconclusive [activator, single point]. In the case of `CN1C(N)=NC(=O)/C1=C/c1ccccc1F`, the “activity, positive = re-replication” value was inactive: -0.306%. In the case of `O=C(CCl)Nc1ccc(Oc2cnc3ccccc3n2)cc1`, the Potency was inconclusive [activator, single point]. In the case of `COc1ccc(O[C@H]2C=C[C@@H](c3ccccc3)O[C@@H]2COC(=O)CC/C(C)=N/OC[C@@H](O)COCc2ccco2)cc1`, the Potency was inconclusive [activator, partial curve, poor fit]. For `Clc1ccc(-c2nnc(-c3ccccc3)nc2N2CCSCC2)cc1`, the Potency was inconclusive [activator, full curve, poor fit]. With `Cc1cc(C)n2nc3nc(N4CCCC4)nc(-c4ccccc4)c3c2n1` the Potency was inconclusive [activator, single point]. In the case of `CCN1C(=O)S/C(=C/c2c(OCc3ccc(C(=O)O)cc3)ccc3ccccc23)C1=O`, the Potency was active: 6.51 µM. In the case of `CCCCn1c(NC(C)=O)c(C#N)c2nc3ccccc3nc21`, the Potency was inconclusive [activator, single point]. With `COc1cnc(-c2ccccn2)nc1Sc1c(Cl)cccc1Cl` the Potency was inconclusive [activator, partial curve, poor fit]. With `COc1ccc(NC(=O)CSc2cc(C(=O)c3nccn3C)c3ccccc3n2)cc1` the “activity, positive = re-replication” value was inactive: 3.76%. In the case of `CCn1cnc2sc(C(=O)Nc3ccccc3OC)c(C)c2c1=O`, the Potency was inconclusive [activator, single point]. For `CC(C)CN1CCN(Cc2ccc(CN3CCCCC3)s2)CC1CCO` (centres undefined), the Potency was inconclusive [activator, partial curve, poor fit]. For `CN(CC(=O)NCc1cccs1)S(=O)(=O)c1cccc2nsnc12`, the “activity, positive = re-replication” value was inactive: -1.56%. With `COC(=O)C(NC(C)=O)(Nc1nc2c(C)cc(C)cc2s1)C(F)(F)F` (centres undefined) the Potency was inconclusive [activator, partial curve, poor fit]. In the case of `O=C(NC1CCN(Cc2ccc3ccccc3c2)CC1)c1ccccc1`, the “activity, positive = re-replication” value was inactive: 4.38%. In the case of `O=C(CN1C(=O)C2CC=CCC2C1=O)N1CCN(c2ccc([N+](=O)[O-])cc2)CC1` (centres undefined), the “activity, positive = re-replication” value was inactive: -1.3%. For `CCN1CCN(CCNC(=O)c2ccc(/C=C3/Sc4ccccc4N(Cc4cccc(Cl)c4)C3=O)cc2)CC1`, the Potency was active: 20.6 µM. For `Cc1occc1-c1nnc(SCC(=O)Nc2ccccc2)n1Cc1ccccc1`, the Potency was inconclusive [activator, single point]. For `Cc1ccc(SCC(=O)OCC(=O)N(C)CC(=O)Nc2ccc(F)cc2)cc1C`, the “activity, positive = re-replication” value was inactive: 2.42%. For `COC(=O)[C@@]1(Cc2ccc(F)cc2)[C@H]2c3cc(C(=O)N4CCCC4)n(CCc4ccccn4)c3C[C@H]2CN1C(=O)c1ccccc1`, the Potency was inconclusive [activator, single point]. With `Fc1ccccc1CNc1cc(Cl)cc(Cl)c1` the Potency was inconclusive [activator, single point].
